From the supplement of paper PMC4723716
± gives the uncertainty stated by the source. Whole data set: some 9,900 compounds, median “viability index relative to DMSO control” near 1, cut for the lowest 2% near 0.85. The list shows a part of the results.

Each compound was assayed on Plasmodium falciparum NF54 stage V gametocytes (assay: viability index relative to DMSO control (fraction); higher = less gametocyte killing). Conditions: 2.5 µM, library set: Broad Institute DOS, incubation time: 72 h.
Outline: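 P. falciparum NF54 stage V gametocytes in serum-free screening medium (0.75% gametocytemia, 1.25% hematocrit, 10 µl) were incubated with compound at 2.5 µM in 1,536-well plates for 72 hr at 37°C under low oxygen. Then 3 µl of 2.5 µM MitoTracker Red CMXRos plus 0.13% saponin was added for one to two hours. One field per well was imaged, 20–70 µm2 red particles were counted, and the viability index was the count divided by the plate mean of DMSO wells.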

Row | Compound | viability index
1 | C/C=C/c1ccc([C@H]2[C@@H](CO)N[C@@H]2CN(C(=O)c2ccccc2F)C(C)C)cc1 | 0.964 ± 0.083
2 | CCS(=O)(=O)N1CC(=O)N2[C@@H](CO)[C@H](c3ccc(C#CC4CCCCC4)cc3)[C@@H]2C1 | 1.06 ± 0.032
3 | N#C[C@H]1[C@H](c2ccccc2)[C@H](CO)N1C(=O)c1ccc2c(c1)OCO2 | 1.09 ± 0.006
4 | Cc1cccc(S(=O)(=O)N2CC[C@@H]3[C@@H](CO)N(C)c4ccc(Br)cc4[C@@H]32)c1 | 1.096 ± 0.0085
5 | O=C(Nc1ccccc1F)N1CC(=O)N2[C@H](C1)[C@H](c1ccc(-c3cccnc3)cc1)[C@@H]2CO | 1.01 ± 0.055
6 | CO[C@H](CN(C)C(=O)c1ccccc1F)[C@@H](C)CN([C@H](C)CO)S(=O)(=O)c1ccc(F)cc1 | 1.11 ± 0.041
7 | COc1ccc(-c2ccccc2[C@H]2[C@@H](C#N)N(C(=O)NC(C)C)[C@H]2CO)cc1 | 1.06 ± 0.061
8 | CS(=O)(=O)N1[C@H](C#N)[C@H](c2ccccc2-c2ccccc2F)[C@H]1CO | 1.16 ± 0.054
9 | O=C(C[C@@H]1C=C[C@@H](NC(=O)Nc2cccc(F)c2)[C@@H](CO)O1)NCC1CCCCC1 | 0.95 ± 0.071
10 | COc1ccccc1NC(=O)N[C@H]1CC[C@H](CCNS(=O)(=O)c2ccc(Cl)cc2)O[C@@H]1CO | 0.853 ± 0.12
11 | CCCC(=O)Nc1ccc2c(c1)C(=O)N(C)[C@H]1CC[C@@H](CC(=O)N3CCCCC3)O[C@@H]1CO2 | 1.11 ± 0.061
12 | CC(C)C#Cc1ccc([C@@H]2[C@@H](CO)N3C(=O)CN(C(=O)c4ccc5c(c4)OCO5)C[C@@H]23)cc1 | 1.08 ± 0.072
13 | C[C@@H]1CN([C@@H](C)CO)C(=O)c2ccccc2-c2ccccc2CO[C@@H]1CN(C)S(=O)(=O)c1cn(C)cn1 | 0.904 ± 0.074
14 | O=C(C1CCC1)N1CC2(C1)[C@@H](c1ccccc1)[C@@H](CO)N2Cc1nccs1 | 1.09 ± 0.07
15 | CO[C@H]1CN(C)C(=O)c2ccc(NC(=O)c3nc4ccccc4s3)cc2OC[C@H](C)N(Cc2cccnc2)C[C@@H]1C | 1.04 ± 0.13
16 | CCCC#Cc1ccc2c(c1)[C@@H]1[C@@H](CCN1S(=O)(=O)c1ccccc1C)[C@@H](CO)N2 | 1.01 ± 0.039
17 | C[C@H](CO)N1C[C@H](C)[C@@H](CN(C)C(=O)C2CCOCC2)Oc2ncc(-c3cccc(C#N)c3)cc2C1=O | 1 ± 0.03
18 | COCC(=O)N1CC(=O)N2[C@H](CO)[C@H](c3ccc(C#CC4CC4)cc3)[C@@H]2C1 | 1.07 ± 0.04

Row | Compound | viability index
19 | Cc1ccc(OC(=O)N(C)C[C@@H]2OCc3ccccc3-c3ccccc3C(=O)N([C@@H](C)CO)C[C@@H]2C)cc1 | 1.02 ± 0.055
20 | C[C@H](NC(=O)C[C@@H]1CC[C@@H]2[C@@H](COc3ccc(NC(=O)C4CCOCC4)cc3C(=O)N2C)O1)c1ccccc1 | 1.12 ± 0.072
21 | COc1ccc2c3c([nH]c2c1)[C@@H](CO)N(C[C@]31CN(C1)C(=O)NC(C)C)C(=O)C1CCOCC1 | 1.03 ± 0.045
22 | CN1C(=O)c2cc(NC(=O)c3cccc(Cl)c3)ccc2OC[C@@H]2O[C@@H](CC(=O)NC3CCCCC3)CC[C@H]21 | 1.1 ± 0.042
23 | CO[C@@H]1CN(C)C(=O)c2ccc(NS(=O)(=O)CC(F)(F)F)cc2OC[C@H](C)N(Cc2nccs2)C[C@@H]1C | 1.11 ± 0.024
24 | COCC#Cc1ccc([C@@H]2[C@@H](CO)N3CCCCN(Cc4cccnc4)C[C@@H]23)cc1 | 1.06 ± 0.14
25 | CN1[C@H](C(=O)N2CCc3ccccc3C2)[C@@H](CO)[C@@H]2Cn3c(ccc(-c4cccnc4)c3=O)[C@@H]21 | 1.054 ± 0.0029
26 | O=C(c1cccc(F)c1)N1CC2(C1)[C@@H](c1ccccc1)[C@H](CO)N2Cc1ccccn1 | 1.07 ± 0.042
27 | CC(=O)N1[C@@H](CO)[C@@H]2c3ccccc3N(S(=O)(=O)c3ccccc3C)C[C@@H]21 | 1.02 ± 0.042
28 | CCS(=O)(=O)N(C)C[C@@H]1N[C@H](CO)[C@@H]1c1ccc(C#CC(C)C)cc1 | 0.983 ± 0.075
29 | O=C(C[C@@H]1CC[C@@H](NC(=O)CC2CC2)[C@@H](CO)O1)NCC(F)(F)F | 1.02 ± 0.025
30 | OC[C@@H]1[C@H](c2ccc(C3=CCCC3)cc2)[C@H]2CN(Cc3ccncc3)CCCCN12 | 1.05 ± 0.068
31 | N#C[C@H]1[C@H](c2ccccc2C2=CCCCC2)[C@H](CO)N1S(=O)(=O)c1ccccc1 | 1.14 ± 0.019
32 | O=C(NC1Cc2ccccc2C1)[C@@H]1[C@@H](CO)[C@@H]2Cn3c(cccc3=O)[C@@H]2N1C(=O)c1cnccn1 | 1.06 ± 0.096
33 | COc1ccc2c3c([nH]c2c1)[C@@H](CO)N(C[C@]31CN(C1)C(=O)C1CCC1)C(=O)c1ccccn1 | 1.07 ± 0.14
34 | CS(=O)(=O)N1CC(=O)N2[C@@H](CO)[C@@H](c3ccc(C#CCC4CCCC4)cc3)[C@@H]2C1 | 0.9829 ± 0.0019
35 | C[C@@H]1CN([C@H](C)CO)C(=O)Cc2cc(NC(=O)CCN3CCOCC3)ccc2O[C@H]1CN(C)Cc1ccc(C(=O)O)cc1 | 1.07 ± 0.035
36 | C[C@@H]1CN([C@@H](C)CO)C(=O)CCCn2cc(nn2)CO[C@H]1CN(C)C(=O)c1ccc(N2CCN(C)CC2)cc1 | 1.04 ± 0.035
